# Measurements reported in PubChem BioAssay (NCATS).
# Values joined by “and” are separate entries in the source; they are usually repeats but may differ in a detail not shown here. Identical values can stand only once. This list was built around the results that the source calls inconclusive (neither active nor inactive); the mix of calls is not that of the screen. For some of these results: Potencies beside an inconclusive call are fits to weak or partial responses and may not hold up. Active and inactive are the calls of the source. Calls follow the shape of the dose curve; as a rule, active = well fitted curve in the direction sought with a large enough effect; inconclusive = small, poorly fitted or top-dose-only effect, or another doubt; inactive = no such curve, though single readings can be large; an effect the other way counts as inactive or inconclusive.
# Assays:
# [1] = Viability qHTS for spleen associated tyrosine kinase inhibitor (SYKi) naive MV4-11 cells (AID 1963823); details: MV4-11 AML viability, CellTiter-Glo luminescence, 72 h; viability (% of control): at 45 µM (top of the series); also: nearly all actives have a fitted effect of over 40% in size; also: potency is read from the fitted curve at half-maximal effect
# How it was run: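 SYK inhibitor-naive MV4-11 cells, 500 per well, exposed to compounds for 72 hr at 37 C, 5% CO2. Viability read as CellTiter-Glo luminescence after 10 min at room temperature.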
# [2] = molecular target: Cytochrome P450 3A7 (Homo sapiens) (UniProt P24462); assay: Cytochrome P450 family 3 subfamily A member 7 (CYP3A7) small molecule antagonists: luciferase biochemical qHTS assay (AID 1963596); also: nearly all actives have a fitted effect of over 40% in size; also: potency is read from the fitted curve at half-maximal effect
# How it was run: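 P450-Glo luminescent assay: CYP3A7 enzyme converts a proluciferin substrate to luciferin, detected by luciferase reagent; light proportional to activity. Compounds in DMSO preincubated 10 min with enzyme-substrate mix at room temperature, then NADPH regeneration added for 1 h.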
# [3] = Cellular viability qHTS for adrenocortical cancer (ACC) cell line SW-13 (AID 1963989); details: SW-13 ACC cells viability, CellTiter-Glo, 48 h; activity (max response): hits give low values; also: nearly all actives have a fitted effect of over 65% in size; also: potency is read from the fitted curve at half-maximal effect;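 as to activity (max response): cells grown in serum-free medium with ITS supplement; % is scaled to controls: 0 for no effect and ±100 for the full control effect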
# How it was run: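 Here, serum-free SW-13 cultures were dosed up to 46 uM. Following 48 h, ATP-dependent luminescence (CellTiter-Glo) reported viable cells, and logistic modeling produced IC50 values.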
# [4] = Quantitative highthroughput screen to assess conditional lethalithy of NOMO1 cells grown in RPMI1640 with untreated serum (RPMI+s) (AID 1963876); details: NOMO1 AML cells in RPMI+serum, CellTiter-Glo viability, 48 h; viability: at 45.8 µM (top of the series); also: potency is read from the fitted curve at half-maximal effect; nearly all actives have a fitted effect of over 35% in size
# How it was run: (§1)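 Each medium arm—HPLM with 10% dialyzed FBS, or RPMI1640 with 5 mM glucose and 10% untreated or dialyzed FBS—was screened against an 11-point, 3-fold compound titration for 48 h at 37 °C, with CellTiter-Glo luminescence as endpoint.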
# [5] = Quantitative highthroughput screen to assess conditional lethalithy of NOMO1 cells grown in RPMI1640 with dialyzed fetal bovine serum (RPMI+ds) (AID 1963877); also: potency is read from the fitted curve at half-maximal effect; nearly all actives have a fitted effect of over 30% in size
# How it was run: as §1
# [6] = Quantitative highthroughput screen to assess conditional lethalithy of NOMO1 cells grown in Human Plasma-Like Medium with dialyzed fetal bovine serum (HPLM+ds) (AID 1963878); details: NOMO1 AML cells in HPLM+ds, CellTiter-Glo viability, 48 h; viability: at 45.8 µM (top of the series); also: potency is read from the fitted curve at half-maximal effect; nearly all actives have a fitted effect of over 35% in size
# How it was run: as §1
# [7] = Quantitative highthroughput screen to assess conditional lethalithy of P12 Ichikawa cells grown in Human Plasma-Like Medium with dialyzed fetal bovine serum (HPLM+ds) (AID 1963879); details: Potency: viability; also: potency is read from the fitted curve at half-maximal effect; nearly all actives have a fitted effect of over 35% in size
# How it was run: as §1
# [8] = Quantitative highthroughput screen to assess conditional lethalithy of P12 Ichikawa cells grown in RPMI1640 with dialyzed fetal bovine serum (RPMI+ds) (AID 1963880); details: Potency: P12-Ichikawa viability; also: potency is read from the fitted curve at half-maximal effect; nearly all actives have a fitted effect of over 35% in size
# How it was run: as §1
# [9] = Quantitative highthroughput screen to assess conditional lethalithy of P12 Ichikawa cells grown in RPMI1640 with untreated serum (RPMI+s) (AID 1963881); details: Potency: viability
# How it was run: as §1
# [10] = Quantitative highthroughput screen to assess conditional lethalithy of SEM cells grown in Human Plasma-Like Medium with dialyzed fetal bovine serum (HPLM+ds) (AID 1963882); also: nearly all actives have a fitted effect of over 35% in size
# How it was run: as §1
# [11] = Quantitative highthroughput screen to assess conditional lethalithy of SEM cells grown in RPMI1640 with unreated serum (RPMI+s) (AID 1963883); details: SEM B-ALL cells, CellTiter-Glo viability, 48 h; viability: at 45.8 µM (top of the series)
# How it was run: as §1
# [12] = Cellular viability qHTS for adrenocortical cancer (ACC) cell line NCI-H295R (AID 1963990); details: CellTiter-Glo ATP luminescence, 48 h; activity change, negative = viability loss: at 46.1 µM (top of the series); also: nearly all actives have a fitted effect of over 60% in size; also: potency is read from the fitted curve at half-maximal effect;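 as to activity change, negative = viability loss: 0% = DMSO only wells and -100% = full killing with cytotoxic reference compound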
# How it was run: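 Viability of NCI-H295R after 48 h of treatment (final up to 46 uM) measured through cellular ATP luminescence.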
# [13] = Viability qHTS for spleen associated tyrosine kinase inhibitor (SYKi) drug resistant MV4-11 cells (AID 1963824); also: nearly all actives have a fitted effect of over 35% in size; also: potency is read from the fitted curve at half-maximal effect
# How it was run: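 CellTiter-Glo luminescence, read 10 min after reagent addition, reports viability after a 72 hr compound exposure. Cells are an MV4-11 line made resistant to SYK inhibition, seeded at 500 per well onto compound-containing plates.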
# Tags tell the direction and shape of the fitted curve.
# UniProt P24462, sequence (P24462 whole entry, looked up): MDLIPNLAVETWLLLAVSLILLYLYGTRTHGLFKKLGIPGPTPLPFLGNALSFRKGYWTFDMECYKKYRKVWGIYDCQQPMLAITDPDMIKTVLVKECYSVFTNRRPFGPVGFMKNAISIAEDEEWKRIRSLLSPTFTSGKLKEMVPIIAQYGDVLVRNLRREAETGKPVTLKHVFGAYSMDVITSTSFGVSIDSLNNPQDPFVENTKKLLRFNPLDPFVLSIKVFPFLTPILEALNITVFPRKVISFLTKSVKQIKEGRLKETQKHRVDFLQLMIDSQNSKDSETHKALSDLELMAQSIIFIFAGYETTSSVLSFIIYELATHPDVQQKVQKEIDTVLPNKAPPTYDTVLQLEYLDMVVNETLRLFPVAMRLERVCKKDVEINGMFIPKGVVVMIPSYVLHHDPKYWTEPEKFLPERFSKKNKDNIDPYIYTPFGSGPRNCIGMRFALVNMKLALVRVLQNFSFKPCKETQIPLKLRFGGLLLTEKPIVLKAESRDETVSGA
compound,measurement,setting,value
COC1C(OC(=O)/C=C/C=C/C=C/C=C/C(=O)O)CCC2(CO2)C1C1(C)OC1CC=C(C)C (configuration not stated),Potency,[1],"inconclusive: 1.12 µM [cytotoxic, partial curve, poor fit]"
COc1cc(OC)cc(OC)c1,Potency,[2],inactive
same,activity (max response),[3],inactive: 5.62%
Cc1cc(C)c(S(=O)(=O)N(Cc2ccc(-c3cccc(S(C)(=O)=O)c3)cc2)Cc2ccc(C(F)(F)F)o2)c(C)c1,Potency,[1],inactive
CC1CCN(CCCC(=O)c2ccc(F)cc2)CC1,Potency,[2],inactive
same,activity (max response),[3],inactive: -0.695%
COc1ccc(-c2oc3cc(OC)ccc3c2C(=O)c2ccc(C#N)cc2)cc1,Potency,[2],"inconclusive: 7.08 µM [inhibitor, partial curve, poor fit]"
same,Potency,[4],"inconclusive: 0.332 µM [cytotoxic, full curve]"
same,Potency,[5],"inconclusive: 0.296 µM [cytotoxic, full curve]"
same,Potency,[6],"inconclusive: 0.332 µM [cytotoxic, full curve]"
same,Potency,[7],active: 1.87 µM
same,Potency,[8],active: 2.96 µM
same,Potency,[9],active: 1.32 µM
same,Potency,[10],inactive
same,Potency,[11],inactive
CC[C@H]1CN2CCc3cc(OC)c(OC)cc3[C@@H]2C[C@@H]1C[C@H]1NCCc2cc(OC)c(OC)cc21,Potency,[2],inactive
same,Potency,[3],active: 231 nM and active: 447 nM
same,Potency,[12],active: 146 nM and active: 282 nM
COc1cc(Cc2cnc(N)nc2N)cc(OC)c1OC,Potency,[2],"inconclusive: 0.977 µM [inhibitor, full curve]"
same,Potency,[12],inactive
O=C1c2ccccc2CCc2ccccc21,Potency,[1],"inconclusive: 10.6 µM [cytotoxic, partial curve, poor fit]"
CO[C@@H]1[C@@H](OC)[C@H](C)[C@@](O)(CC(=O)O)O[C@H]1[C@H](C)[C@H]1O[C@@]2(CC[C@@](C)([C@H]3CC[C@@](C)([C@@H]4O[C@@H]([C@H]5O[C@](C)(O)[C@H](C)C[C@@H]5C)C[C@@H]4OC4C[C@H](OC)[C@@H](OC)[C@H](C)O4)O3)O2)C[C@H](O)[C@H]1C (some centres not stated),Potency,[2],"inconclusive: 4.47 µM [inhibitor, partial curve]"
same,Potency,[3],active: 1.46 µM
same,Potency,[12],active: 1.16 µM
CCC(=O)c1ccc(O)cc1,Potency,[2],inactive
same,Potency,[13],active: 7.5 µM
same,Potency,[12],inactive
O=C(O)CCCc1ccccc1,Potency,[2],"inconclusive: 13.8 µM [inhibitor, partial curve, poor fit]"
same,Potency,[12],inactive
CNCc1ccccc1,Potency,[2],"inconclusive: 38.9 µM [inhibitor, single point]"
same,Potency,[12],inactive
CCOCc1nc2c(N)nc3ccccc3c2n1CC(C)(C)O,Potency,[2],"inconclusive: 26.8 µM [inhibitor, single point]"
same,activity (max response),[3],inactive: -23.1%
CN(C)CC/C=C1\c2ccccc2COc2ccccc21,Potency,[2],"inconclusive: 38.9 µM [inhibitor, single point]"
same,Potency,[3],"inconclusive: 18.4 µM [cytotoxic, partial curve, poor fit]"
same,Potency,[12],"inconclusive: 7.31 µM [cytotoxic, single point]"
CN(C)C(=O)C(=O)c1cn(C)c2cc(Cl)c(C(=O)N3CCC(Cc4ccc(F)cc4)CC3)cc12,Potency,[1],"inconclusive: 14.6 µM [cytotoxic, partial curve]"
CCCCCCCCCCCC(=O)[O][Sn]([CH2]CCC)([CH2]CCC)[O]C(=O)CCCCCCCCCCC,Potency,[2],active: 19.5 µM
same,Potency,[13],"inconclusive: 26.6 µM [cytotoxic, single point]"
same,Potency,[12],"inconclusive: 3.66 µM [cytotoxic, full curve]"
C[C@H]1COc2c(C3(N)CC3)c(F)cc3c(=O)c(C(=O)O)cn1c23,Potency,[2],inactive
same,activity (max response),[3],inactive: -1.24%
CC1=C(C(=O)O)N2C(=O)[C@@H](NC(=O)[C@H](N)c3ccccc3)[C@H]2SC1,Potency,[2],"inconclusive: 38.9 µM [inhibitor, single point]"
same,Potency,[13],inactive
same,Potency,[12],"inconclusive: 6.51 µM [rising, single point]"
COc1cc(N(C)CCN(C)C)c(N)cc1Nc1nccc(-c2cn(C)c3ccccc23)n1,Potency,[1],"inconclusive: 10.3 µM [cytotoxic, partial curve]"
CC(=O)OC1C(C)C2C(OC3OC(CO)C(O)C(O)C3O)OC=C(C(=O)O)C2C1OC(=O)c1ccccc1 (configuration not stated),Potency,[1],"inconclusive: 3.17 µM [rising, single point]"
CC(=O)O[C@H]1C[C@@H]2CC[C@@H]3[C@H](CC[C@@]4(C)[C@H]3C[C@H]([N+]3(C)CCCCC3)[C@@H]4OC(C)=O)[C@@]2(C)C[C@@H]1N1CCCCC1,Potency,[1],inconclusive: 0.001 µM
CC1=CC[C@]2(C(=O)O[C@@H]3O[C@H](CO[C@@H]4O[C@H](CO)[C@@H](O[C@@H]5O[C@@H](C)[C@H](O)[C@@H](O)[C@H]5O)[C@H](O)[C@H]4O)[C@@H](O)[C@H](O)[C@H]3O)CC[C@]3(C)C(CCC4[C@@]5(C)C[C@@H](O)[C@H](O)[C@@](C)(CO)C5CC[C@]43C)C2C1C (some centres not stated),viability (% of control),[1],inactive: 78.2% [at 9.25 µM]
Clc1ccccc1CNCC1CCC(CNCc2ccccc2Cl)CC1 (configuration not stated),Potency,[1],active: 11.6 µM
Cn1cnc(-c2nccc3c(=O)[nH]c(OCCCC(F)(F)F)nc23)c1,Potency,[1],"inconclusive: 23.1 µM [cytotoxic, single point]"
CC1(C)CC2C3=CCC4C5(C)CCC(OC6OC(C(=O)O)C(O)C(O)C6OC6OC(CO)C(O)C(O)C6OC6OC(CO)C(O)C(O)C6O)C(C)(CO)C5CCC4(C)C3(C)CCC2(C)C(OC2OCC(O)C(OC3OC(CO)C(O)C(O)C3O)C2O)C1O (configuration not stated),viability (% of control),[1],inactive: 96.2% [at 9.25 µM]
